The campaign covered roughly 310,000 compounds. About 14,000 (4.5%) showed an effect of 50% or more. The effect is printed as a negative number. Some of the results follow.
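Also: peak tail current of the secondary pulse compared with the same well before compound.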

The target of the assay is human ether-à-go-go-related gene (hERG) potassium channel (human, UniProt Q12809). Put plainly: primary screen, population patch clamp on CHO cells stably expressing hERG.
Chain of human ether-à-go-go-related gene (hERG) potassium channel (Q12809 whole entry, looked up): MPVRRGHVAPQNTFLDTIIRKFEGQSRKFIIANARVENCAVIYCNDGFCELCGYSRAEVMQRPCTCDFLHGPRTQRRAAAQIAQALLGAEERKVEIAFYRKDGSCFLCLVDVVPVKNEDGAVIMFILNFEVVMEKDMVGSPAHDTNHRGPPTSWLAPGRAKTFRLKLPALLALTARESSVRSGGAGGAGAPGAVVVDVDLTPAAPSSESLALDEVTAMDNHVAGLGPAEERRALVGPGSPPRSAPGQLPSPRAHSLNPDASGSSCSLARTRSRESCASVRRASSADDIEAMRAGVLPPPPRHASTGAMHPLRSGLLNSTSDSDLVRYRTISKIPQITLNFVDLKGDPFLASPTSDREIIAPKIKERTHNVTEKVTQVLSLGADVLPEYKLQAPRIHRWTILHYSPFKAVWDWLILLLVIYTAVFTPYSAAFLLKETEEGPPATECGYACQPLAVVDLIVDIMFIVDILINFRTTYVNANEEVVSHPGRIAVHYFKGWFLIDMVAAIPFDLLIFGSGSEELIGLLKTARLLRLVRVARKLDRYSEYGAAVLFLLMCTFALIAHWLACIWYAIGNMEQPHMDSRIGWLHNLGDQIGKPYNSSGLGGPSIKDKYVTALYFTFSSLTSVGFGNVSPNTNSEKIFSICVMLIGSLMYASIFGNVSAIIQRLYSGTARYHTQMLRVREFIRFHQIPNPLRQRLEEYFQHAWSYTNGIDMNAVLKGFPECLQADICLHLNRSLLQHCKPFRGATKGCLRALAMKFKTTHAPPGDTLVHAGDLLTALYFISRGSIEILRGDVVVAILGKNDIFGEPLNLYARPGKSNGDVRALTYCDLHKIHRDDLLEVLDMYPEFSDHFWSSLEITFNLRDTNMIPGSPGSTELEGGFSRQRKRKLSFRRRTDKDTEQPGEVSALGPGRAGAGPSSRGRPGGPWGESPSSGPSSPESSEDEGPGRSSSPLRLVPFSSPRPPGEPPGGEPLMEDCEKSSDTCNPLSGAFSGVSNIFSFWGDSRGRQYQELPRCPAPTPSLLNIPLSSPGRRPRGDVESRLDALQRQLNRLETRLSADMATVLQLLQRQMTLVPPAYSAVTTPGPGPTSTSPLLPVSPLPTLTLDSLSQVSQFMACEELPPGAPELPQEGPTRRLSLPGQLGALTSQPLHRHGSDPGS
`Cc1ccc(S(=O)(=O)N2CCOCC2)cc1NC(=O)COC(=O)Cn1c(C)csc1=O`: the “hERG current change (%, negative = inhibition) at 10uM” value is reported as 11.4%.
Regarding `COCCCn1c(SCC(=O)Nc2ccccc2)nnc1-c1ccncc1`, the “hERG current change (%, negative = inhibition) at 10uM” value is on record as -6.82%.
With `Cc1ccccc1NC(=O)CN1C(=O)COc2ccc(S(=O)(=O)N3CCCC3)cc21`, the “hERG current change (%, negative = inhibition) at 10uM” value came out at 21.8%.
Turning to `COCCn1c(Cc2cccn2C)nnc1SCC(=O)Nc1nccs1`, the “hERG current change (%, negative = inhibition) at 10uM” value turned out to be 0.101%.
As for `Cc1cc(C)n(-c2nc(SCC(=O)O)c3c4c(sc3n2)CCCC4)n1`, the figure is 6.68%.
`Cc1ccccc1NC(=O)Cc1nc(COC(=O)c2cccc([N+](=O)[O-])c2)cs1`: the “hERG current change (%, negative = inhibition) at 10uM” value was -4.6%.
On to `O=S(=O)(NCCn1cccc1)c1ccc2ccccc2c1`, for which the “hERG current change (%, negative = inhibition) at 10uM” value was determined as 4.41%.
For `O=C(Nc1ccc(Br)c2ccccc12)c1ccc2ccccc2c1O`, the “hERG current change (%, negative = inhibition) at 10uM” value was 22.6%.
On to `CCCCCCC(=O)N/N=C/c1c(O)n(CCc2ccccc2)c(=O)[nH]c1=O`, for which the “hERG current change (%, negative = inhibition) at 10uM” value is recorded as 1.69%.
As to `COc1ccc(Cl)cc1C(=O)Nc1ccc(CN2CCCCC2)cc1`, the “hERG current change (%, negative = inhibition) at 10uM” value is reported as -52%.
As for `COc1ccc(N2CSC3=C(C#N)C(c4cccc(OC)c4OC)CC(=O)N3C2)cc1` (stereo not shown), the “hERG current change (%, negative = inhibition) at 10uM” value came to 7.55%.
As for `Cc1[nH]c2ccccc2c1C(c1ccncc1)N1CCC(C)CC1` (stereo not shown), the figure is 10.3%; as for `COc1ccccc1NC(=O)c1cc(C(=O)O)ccc1C(=O)O`, 20.4%.
`O=C(CN(c1ccccc1)S(=O)(=O)c1ccccc1)NCCSc1nc2ccccc2s1`: the “hERG current change (%, negative = inhibition) at 10uM” value was 1.28%.
`CC(Nc1n[nH]c(=S)[nH]c1=O)C(=O)OCc1ccccc1` (stereo not shown): the “hERG current change (%, negative = inhibition) at 10uM” value is listed as -0.223%.
As to `CCOC(=O)Cn1c(C)cc(=O)c2ccccc21`, the “hERG current change (%, negative = inhibition) at 10uM” value is on record as -1.93%.
`C#CCSc1nc(Cc2ccc(Cl)cc2)nc2ccccc12`: the “hERG current change (%, negative = inhibition) at 10uM” value was 35.8%.
Take `COc1ccc(C(=O)/C=C/c2ccc(OC)c(Cn3nnc4ccccc43)c2)cc1`: the “hERG current change (%, negative = inhibition) at 10uM” value is listed as -0.745%.
In the case of `COc1ccc(NS(=O)(=O)c2ccc(F)c(F)c2F)cc1S(=O)(=O)N1CCOCC1`, the “hERG current change (%, negative = inhibition) at 10uM” value is -7.74%.
Regarding `CCOC(=O)Cc1cn2c(=O)cc(CSCC(=O)Nc3ccc(C)c(C)c3)nc2s1`, the “hERG current change (%, negative = inhibition) at 10uM” value turned out to be 5.04%.
Regarding `COc1ccccc1NC(=O)c1ccccc1Oc1ccccc1`, the “hERG current change (%, negative = inhibition) at 10uM” value is on record as 11%.
With `COc1ccccc1CNCC(=O)Nc1ccc(C(F)(F)F)cc1.Cl`, the “hERG current change (%, negative = inhibition) at 10uM” value is -11.9%.
With `Cc1c(C(=O)NCc2ccco2)oc2c(F)cccc12`, the “hERG current change (%, negative = inhibition) at 10uM” value was 1.08%.
As for `Cc1noc(C)c1C(=O)N1CCN(c2ncccn2)CC1`, the figure is 7.26%; as for `CCC(=O)Nc1ccc(C(=O)OCC(=O)c2ccc(C)c([N+](=O)[O-])c2)cc1`, -0.0941%.
Then `CCN(c1ccccc1)S(=O)(=O)c1ccc(C(=O)N(CCN(C)C)c2nc3c(F)cc(F)cc3s2)cc1.Cl`, with -54.7%.
`COc1cc(NC(=O)Cn2c([N+](=O)[O-])cnc2C)c(OC)cc1Cl`: the “hERG current change (%, negative = inhibition) at 10uM” value worked out at 10.5%.
As to `O=C(NCCN1CCOCC1)C1CCN(Cc2ccccc2O)CC1`, the “hERG current change (%, negative = inhibition) at 10uM” value is reported as 19.2%.
Regarding `CCOC(=O)COc1ccc(S(=O)(=O)c2ccc(OCC(=O)OCC)cc2)cc1`, the “hERG current change (%, negative = inhibition) at 10uM” value is recorded as -6.24%.
Regarding `C#CCn1cc(/C=C2\NC(=O)NC2=O)c2ccccc21`, the “hERG current change (%, negative = inhibition) at 10uM” value is 12.6%.
With `COC(=O)c1cc(=O)nc2sccn12`, the “hERG current change (%, negative = inhibition) at 10uM” value is 1.97%.
Take `COc1ccc(Cc2nnc(NC(=O)c3cccc([N+](=O)[O-])c3)s2)cc1`: the “hERG current change (%, negative = inhibition) at 10uM” value is recorded as 42.1%.
Consider `Cc1ncc([N+](=O)[O-])n1Cc1ccccc1`, for which the “hERG current change (%, negative = inhibition) at 10uM” value is recorded as -3.84%.
Then `CC(=O)Nc1ccc(S(=O)(=O)NCCC(=O)NCC2COc3ccccc3O2)cc1` (stereo not shown), with 12.8%; and `CCOC(=O)c1c(-c2ccc(F)cc2)csc1NC(=O)CCN1CCOCC1.O=C(O)C(=O)O`, with -48.7%.
Regarding `O=c1ccnc(SCc2ccccc2Cl)[nH]1`, the “hERG current change (%, negative = inhibition) at 10uM” value amounted to 14.7%.
For `O=C(Cn1c(Cc2ccccc2)nc2ccccc21)NCc1ccc2c(c1)OCO2`, the “hERG current change (%, negative = inhibition) at 10uM” value is listed as -10.6%.
`CCCCn1nnnc1NCc1cc(Cl)c(OC)c(OC)c1`: the “hERG current change (%, negative = inhibition) at 10uM” value is on record as -9.65%.
As to `COc1ccc(CC(=O)N2CCCc3ccccc32)cc1OC`, the “hERG current change (%, negative = inhibition) at 10uM” value came to 4.74%.
For `CC(C)[C@H](N)C(=O)N1CCC(C(=O)N[C@@H](Cc2ccccc2)C(=O)NCc2ccc(F)cc2)CC1`, the “hERG current change (%, negative = inhibition) at 10uM” value was found to be 15.7%.
In the case of `Cc1cccc2cc3c(N)c(C(=O)Nc4ccc(N5CCOCC5)cc4)sc3nc12`, the “hERG current change (%, negative = inhibition) at 10uM” value is 2.12%.
As for `CN(C)c1nc(F)c(F)c(S(=O)(=O)c2ccccc2)c1F`, the “hERG current change (%, negative = inhibition) at 10uM” value is -8.33%.
As for `NS(=O)(=O)c1ccc(N=Nc2c(-c3ccccc3)[nH]n(-c3nc(-c4ccccc4)cs3)c2=O)cc1`, the “hERG current change (%, negative = inhibition) at 10uM” value was found to be 2.31%.

The values are drawn from publication PMC4336329 (PLoS ONE, 2015).
